This is one part of the list. Single values are uncertain, as repeats are few or missing.
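Also: polymyxin B level opens the outer membrane while sparing the inner membrane, with novobiocin wells as reference growth inhibitor.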

This assay deals with Salmonella enterica serovar Typhimurium SL1344. As to the kind of experiment: bacterial growth OD600 after 18 h in MHB with 0.5 µg/mL polymyxin B; higher = more bacterial growth (less inhibition). Particulars: 25 µM; polymyxin B 0.5 µg/mL; system: broth. On the procedure: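 Secondary screen of the 553 primary hits at 25 µM. (i) S. Typhimurium SL1344 grown in Mueller-Hinton broth with 0.5 µg/mL polymyxin B, OD600 read after 18 h. (ii) SAFIRE assay: RAW 264.7 macrophages infected with S. Typhimurium sifB::gfp (MOI 30); compound added 2 h post-infection; cells fixed at 18 h; GFP-positive pixel fraction per macrophage imaged by confocal microscopy and expressed as % of DMSO control.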
As for `COCCCN1C(=O)CC(CC(=O)N2CCC(c3ccc(F)cc3)C2)(c2ccccc2Cl)C1=O` (configuration not stated), the “bacterial growth OD600” value is 0.051.

For the compound `COc1cccc(C2c3[nH]c4ccccc4c3CCN2C(=O)c2nc(C)c[nH]2)c1` (configuration not stated), the “bacterial growth OD600” value is -0.002.

`CCC1CN(Cc2sccc2C)Cc2cc(OC)ccc2O1` (configuration not stated): the “bacterial growth OD600” value is 0.172.

`Fc1ccc(-c2cnnc(NCc3cccc(OC(F)(F)F)c3)n2)cc1`: the “bacterial growth OD600” value worked out at 0.006.

`COc1ccc(-n2ncc(C(C)NS(=O)(=O)c3cccc4nsnc34)c2C)cc1` (configuration not stated): the “bacterial growth OD600” value stood at 0.376.

On to `CC(c1ccon1)N(C)C(=O)CC1(c2ccc(-c3ccccc3)cc2)CC(=O)N(C)C1=O` (configuration not stated), for which the “bacterial growth OD600” value stood at 0.205.

For `COc1cccc(OCC2CCCN(C(=O)CCC3(Cc4ccccc4)CCC(=O)N3)C2)c1` (configuration not stated), the “bacterial growth OD600” value worked out at 0.008.

In the case of `O=C(/C=C/c1cccs1)N(Cc1ccncc1)Cc1cccc(OCCc2ccc(F)cc2)c1`, the “bacterial growth OD600” value is -0.002.

With `COc1ccc(-c2nn(-c3ccccc3C)cc2CN(C)Cc2ccon2)cc1F`, the “bacterial growth OD600” value was -0.001.

For the compound `Cc1ccc(OCCN(C)C(=O)C2CC23CCN(Cc2nc4ccccc4s2)CC3)cc1` (configuration not stated), the “bacterial growth OD600” value is -0.002.

`CCOC(=O)C1(CCc2ccccc2)CCCN(Cc2nccn2CC)C1` (configuration not stated): the “bacterial growth OD600” value worked out at 0.002.

Take `CCCCN(C)C(=O)c1nc2ccccn2c1CNCc1c(OC)ccc2ccccc12`: the “bacterial growth OD600” value stood at 0.005.

Regarding `COCc1ccc(C(=O)N2CCCC(CCc3ccc(F)c(F)c3)C2)o1` (configuration not stated), the “bacterial growth OD600” value was determined as 0.004.

Consider `CCN1CCCC(CN(C)C(=O)c2cc(NC(=O)COC)cc3nc(-c4cccnc4)n(CC)c23)C1` (configuration not stated), for which the “bacterial growth OD600” value was determined as 0.672.

`CCOC(=O)C1(Cc2ccccc2C)CCCN(Cc2ccc(COC)o2)C1` (configuration not stated): the “bacterial growth OD600” value is 0.092.

Take `CCS(=O)(=O)c1ncc(CN2CCCC(C)C2)n1CCCc1ccccc1` (configuration not stated): the “bacterial growth OD600” value is 0.004.

For `O=C(NC(c1ccccn1)C(F)(F)F)c1cn(C2CCCCC2)nn1` (configuration not stated), the “bacterial growth OD600” value was found to be 0.62.

On to `CC(=O)c1ccc(F)c(-c2cc(C)cc3c2OC(CNC(=O)/C=C/c2ccccn2)C3)c1` (configuration not stated), for which the “bacterial growth OD600” value is -0.001.

On to `CN(Cc1ccon1)c1ccc(-c2nc(Cc3ccc(F)cc3)no2)cn1`, for which the “bacterial growth OD600” value amounted to 0.384.

Consider `CCOC(=O)C1(CCCc2ccccc2)CCN(C(=O)C2CC=CCC2)CC1` (configuration not stated), for which the “bacterial growth OD600” value was -0.003.

For `CN(Cc1ccccc1)C1(C(=O)NCCc2c[nH]cn2)Cc2ccccc2C1`, the “bacterial growth OD600” value came to 0.006.

As for `Cc1c[nH]c(CN(C)C(=O)C2(N3C[C@@H](C)O[C@@H](C)C3)Cc3ccccc3C2)n1`, the “bacterial growth OD600” value is 0.523.

For the compound `CCC(=O)N(Cc1cc2c(OC)ccc(OC)c2nc1N1CCOCC1)CC1COc2ccccc2O1` (configuration not stated), the “bacterial growth OD600” value worked out at 0.008.

On to `CC(C)C[C@H](NC(=O)c1csc2nc(-c3cccc(C(F)(F)F)c3)cn12)C(N)=O`, for which the “bacterial growth OD600” value came to 0.

Turning to `COc1ccc2c(c1)OC(C)CN(C(=O)/C(F)=C/c1ccccc1)C2` (configuration not stated), the “bacterial growth OD600” value was -0.006.

`CN(Cc1n[nH]c2c1CCCCC2)C(=O)CC1(c2ccc(-c3ccccc3)cc2)CC(=O)N(C)C1=O` (configuration not stated): the “bacterial growth OD600” value was -0.002.

For the compound `CC(C)CN(C)Cc1cnc(S(=O)(=O)CC(C)C)n1Cc1ccccc1`, the “bacterial growth OD600” value is 0.113.

Turning to `CSc1ncc(CN2CCc3c([nH]c4ccccc34)C2c2cccc(O)c2)cn1` (configuration not stated), the “bacterial growth OD600” value is -0.001.

Take `COc1cc(CN2CCOc3ccc(C(C)(O)COc4ccccc4)cc3C2)ccc1F` (configuration not stated): the “bacterial growth OD600” value was -0.004.

With `COc1cc(CN2Cc3cc(Cl)ccc3OC(C)C2)cc2c1OCO2` (configuration not stated), the “bacterial growth OD600” value was -0.011.

For `O=C(c1cccc(Cl)c1)C1CCCN(C(=O)Nc2ccc3c(c2)OCO3)C1` (configuration not stated), the “bacterial growth OD600” value was 0.316.

On to `CCn1cc(CN2CCC(c3ccc(OC)c(C)c3)Sc3cc(OC)ccc32)c(C)n1` (configuration not stated), for which the “bacterial growth OD600” value is -0.001.

Values taken from the supplement of paper PMC12889115.
